Results reported in paper PMC12040169 (PLOS Biology, 2025).
This is one part of the list.

system: T1, C. trachomatis L2/434/Bu expressing GFP (CTL2-GFP); design: species or system HeLa; C. trachomatis total inclusion area by high-content imaging, normalised to DMSO; conditions: total inclusion area; 28.5 h, 10 µM; inhibitor
T1 construct: L2/434/Bu GFP intracellular growth in HeLa cells
In short: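 After bulk GFP and resorufin fluorescence reads, cells were fixed, stained with Hoechst and imaged by high-content microscopy. Inclusion area and number (GFP) stood in for chlamydial growth, nuclei count (Hoechst) for host cell viability. MICs were derived as for the bulk readout.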

| Structure (SMILES) | % of control remaining |
| --- | --- |
| COc1cccc(Oc2nccnc2-c2ccsc2)c1 [CBK106762] | 76.9028 |
| COCc1cccc(-c2ncc(OC)nc2NC(=O)c2c(C)noc2C)c1 [CBK145237] | 83.0406 |
| O=S(=O)(Nc1nnn[nH]1)c1cccc2nsnc12 [CBK062379] | 95.9733 |
| Cc1cc(CN2CCCC2)cc(C)c1O [CBK028736C] | 43.7858 |
| CN(C)S(=O)(=O)c1ccc(C(=O)Nc2ccc(N3CCOCC3)c(Cl)c2)cc1 [CBK267383] | 89.1542 |
| CC(C)CC12CN3CCN(CC(C3)/C1=N\N=C1/C3CN4CCN(C3)CC1(CC(C)C)C4)C2 [CBK265036] | 92.9977 |
| Cc1ccccc1CSCCNC(=O)Nc1ccc(Cl)cc1 [CBK268669] | 107.699 |
| c1cncc(COc2cncc(OC3CCNC3)n2)c1 (stereo not shown) [CBK077419T] | 97.0675 |
| CN1CCC(=NNC(=O)c2cc(O)c(O)c(O)c2)CC1 [CBK262660] | 96.0442 |
| CCCCN(C)c1c(CC)nc2ccc(C(=O)N3CCNC(=O)C3)cn12 [CBK145460] | 95.048 |
| Cc1ccnc(SCC(=O)c2cc(C)n(C3CC3)c2C)n1 [CBK304686] | 111.665 |
| O=S(=O)(c1ccccc1)c1nc(N2CCNCC2)cn2ccnc12 [CBK154875T] | 109.364 |
| CC(=O)Nc1nc(-c2cc3ccccc3oc2=O)cs1 [CBK287312] | 77.7372 |
| CC(=O)Nc1ccc(-c2nc3ccc(-c4nc5ccc(NC(C)=O)cc5[nH]4)cc3[nH]2)cc1 [CBK261165] | 63.4789 |
| Cc1cnc(C(=O)N[C@H]2C3CCCCC3[C@@H]2c2ccccc2)cn1 (stereo partly shown) [CBK285125] | 106.637 |
| Cn1ccnc1C(NC(=O)c1ccccn1)c1ccc(F)c(F)c1 (stereo not shown) [CBK283783] | 99.9449 |
| CCOc1ccc(-c2n[nH]c(C(=O)N/N=C3/C(=O)Nc4ccccc43)c2C)cc1 [CBK262889] | 106.027 |
| O=C(c1ccc(F)cc1)C1CCN(Cc2ccc3ccccc3c2)CC1 [CBK149122] | 95.0583 |
| CCn1cc(C(=O)N2C[C@H](C(=O)OC)[C@@H](c3ccccc3F)C2)cn1 [CBK283510] | 112.858 |
| c1ccc(CN2CCC(N3CCC(N4CCc5ccccc5C4)CC3)CC2)cc1 [CBK264730G] | 98.7247 |
| O=C(O)CC1C(=O)NCCN1Cc1ccc(F)c(F)c1 (stereo not shown) [CBK270008] | 94.9219 |
| N[C@H]1CCN2C(=O)c3cc(-c4ccc(F)cc4F)ccc3NC(=O)[C@H]12 [CBK289345] | 118.741 |
| COc1cccc(N2CCN(CC(=O)N3CCC(C(N)=O)CC3)CC2)c1 [CBK202881] | 88.6656 |
| CSc1ccc(-c2nccnc2OC(c2ccccc2)c2ccccc2)cc1 [CBK106797] | 96.1102 |
| COc1ccc2c(c1)C(C(C(=O)O)C(=O)O)c1ccccc1O2 (stereo not shown) [CBK266435] | 107.781 |
| O=C(OCc1ccc(S(=O)(=O)c2ccccc2)cc1)c1cc(O)nc2ccccc12 [CBK266782] | 89.8925 |
| CN(C)CCN(C)c1cncc(-c2cccc(N(C)C)c2)n1 [CBK065659] | 64.5557 |

| Structure (SMILES) | % of control remaining |
| --- | --- |
| CCC1(CC)OC(N[C@@H](C)c2ccc(Cl)cc2)=NC1=O [CBK126666] | 132.177 |
| O=C(CN1C2CCC1CC(O)(c1ccco1)C2)Nc1ccc(F)cc1 (stereo not shown) [CBK284062] | 73.969 |
| Cc1c(C(=O)Nc2nc(-c3ccc(S(=O)(=O)N4CCOCC4)cc3)cs2)oc2ccc(Cl)cc12 [CBK267663] | 93.5072 |
| COc1ccc(NS(=O)(=O)c2ccc3c(c2)N(CC(=O)O)C(=O)CO3)cc1NS(C)(=O)=O [CBK297745] | 93.007 |
| Cc1ccc2oc(C(=O)Nc3sc4c(c3C(=O)NCC3CCCO3)CCC4)c(C)c2c1 (stereo not shown) [CBK266282] | 133.655 |
| Cc1ncccc1C(=O)N1CCC(c2cc3ccccc3cn2)CC1 [CBK284854] | 57.7136 |
| Cc1nnc(N2C(=O)c3oc4ccc(Cl)cc4c(=O)c3C2c2cccnc2)s1 (stereo not shown) [CBK267010] | 99.6035 |
| O=C(CSc1ncc(C(=O)O)n1-c1ccc(F)cc1)NCCc1ccc(F)cc1 [CBK297513] | 113.068 |
| Cc1ccc(NC(=O)c2ccccc2OCC(=O)NC23CC4CC(CC(C4)C2)C3)cc1Cl [CBK265091] | 129.358 |
| Cc1ccc2oc([C@H]3CN(C(=O)C(C)(C)NC(=O)OC(C)(C)C)C[C@@H]3C(=O)O)cc2c1 [CBK001600] | 62.7807 |
| O=C(N/N=C/C1C=Nc2ccccc21)c1cc([N+](=O)[O-])cc([N+](=O)[O-])c1 (stereo not shown) [CBK261485] | 87.7562 |
| Cc1c(C)n(Cc2ccccc2)c2ccc(C(=O)OCCN3CCOCC3)cc12 [CBK262427] | 100.895 |
| Cc1ccc(OCC(O)CN2CCN(c3ccccn3)CC2)cc1C (stereo not shown) [CBK058884] | 66.6473 |
| CN1CCC(N2CCN(C(=O)Nc3ccc4c(c3)OCCO4)CC2)CC1 [CBK155898] | 73.0895 |
| Cc1ccc(SCCCn2ccnc2)cc1 [CBK269733C] | 72.2046 |
| CS(=O)(=O)Nc1cc(-c2noc([C@@H]3CCCN3C3CCC3)n2)ccn1 [CBK288889] | 108.062 |
| CC(=O)N1CCc2sccc2C1c1ccc(NC(=O)c2ccc(F)cc2)cc1 (stereo not shown) [CBK286434] | 86.1038 |
| CC(C)(C)C1=CC2=NC3(CCCC3)[C@@H]3C[C@@H](O)[C@@H](O)[C@@H]3N2O1 [CBK303245] | 90.3218 |
| COc1ccc(CNC(=O)C(=O)NCc2ccccc2)cc1 [CBK262158] | 102.685 |
| O=C(NCc1ccco1)c1ccc2c(=O)n(-c3ccccc3)c(=O)[nH]c2c1 [CBK287823] | 86.142 |
| O=C(O)Cc1cc2c(n1Cc1ccc(F)cc1)CCCC2=O [CBK283866] | 85.5762 |
| O=c1[nH]nc2c(SCc3ccccc3)nccn12 [CBK288440] | 70.1157 |
| O=C(CSc1ccc(Cl)cc1)Nc1ccc(S(=O)(=O)N2CCOCC2)cc1 [CBK262723] | 93.0246 |
| O=C(NCc1cccs1)c1ccc(-n2ccnc2)c(-n2cccc2)c1 [CBK285366] | 91.3324 |
| CCCc1cc(C(=O)OC)c(NC(=O)c2c(C)noc2C)s1 [CBK058088] | 23.2022 |
| COc1cc(OC)c2nc(C(F)(F)F)cc(Cl)c2c1 [CBK006518] | 30.7325 |
| O=S(=O)(c1ccc(-c2csc(-c3ccccc3)n2)cc1)N1CCCCCC1 [CBK265504] | 91.93 |

| Structure (SMILES) | % of control remaining |
| --- | --- |
| Cc1nc2cccnc2n1C1CCN(C(=O)NCc2ccccc2)CC1 [CBK282291] | 85.8627 |
| O=C(Nc1ccccc1C(=O)O)c1ccc(Cl)c(S(=O)(=O)N2CCCCC2)c1 [CBK261763] | 91.8625 |
| CN1c2ccccc2C(c2ccccc2)=NS1(=O)=O [CBK022873] | 99.5885 |
| O=C(c1ccco1)N1CCN(C(=O)c2c(F)cccc2F)CC1 [CBK144479] | 93.2832 |
| CCOC(=O)CN1CC(O)CC1c1cccc(C(F)(F)F)c1 (stereo not shown) [CBK304169] | 100.46 |
| CCc1cc(OCc2ccc(Cn3nc(NC(C)=O)c4ccccc43)cc2)c2ccccc2n1 [CBK048402] | 90.5653 |
| Cn1nc(-c2ccccc2)cc1[C@H]1CN2CC[C@H]1C[C@@H]2CNC(=O)NCc1ccccc1 [CBK289098] | 88.7926 |
| Cn1cc(-c2ncc(OCc3ccc4c(c3)OCO4)nc2N)cn1 [CBK145168] | 108.596 |
| O=C(c1ccccc1F)N1CCC(n2c(=O)oc3ccccc32)CC1 [CBK284346] | 66.6316 |
| Cc1ccnc(SCc2ccc(F)cc2Cl)n1 [CBK270290] | 70.3534 |
| COc1ccccc1CC(=O)N1CCN(Cc2ccco2)C[C@@H]1C [CBK285481] | 71.7893 |
| OCCN1CC2(CCN(CC3COc4ccccc4O3)CC2)c2ccccc21 (stereo not shown) [CBK143955] | 116.082 |
| COC(=O)c1c(NC(=O)COc2ccc(Br)cc2)sc2c1CCC2 [CBK263369] | 106.944 |
| COC(=O)CN1C(=O)S/C(=C/c2cc(C)n(-c3ccc4ncccc4c3)c2C)C1=O [CBK265275] | 99.5737 |
| Cc1ccc2oc(C(=O)N(C)Cc3c(C)nn(C)c3C)c(C)c2c1 [CBK281631] | 99.6684 |
| OCc1c(-c2ccc(F)cc2)[nH]c2ncccc12 [CBK283328] | 81.0914 |
| Cc1cccc(C)c1NC(=O)CN1CCC(Oc2cncc(OCCN3CCOCC3)n2)C1 (stereo not shown) [CBK084489] | 90.8726 |
| O=C(O)C1CCC1C(=O)N1CCN(c2nc3ccc(Cl)cc3s2)CC1 (stereo not shown) [CBK057108] | 39.6044 |
| Brc1ccc(-n2cnnn2)cc1 [CBK027696] | 13.9013 |
| Cc1nc(C)c(C(=O)Nc2c(C)noc2C)s1 [CBK200313] | 122.947 |
| COc1ccc(-c2nc(NC(=O)C3CCC(OC)CC3)cnc2-c2cccc(C)c2)cn1 (stereo not shown) [CBK036813] | 102.896 |
| O=C(O)C(Cc1ccccc1)NS(=O)(=O)c1ccc(I)cc1 (stereo not shown) [CBK268807] | 108.083 |
| O=C1CNC(=O)C2(C/C=C/C[C@H]3COCC[C@H]3N1)CCN(CCOc1ccccc1)CC2 [CBK292077] | 114.559 |
| OC1CCN(Cc2c(-c3cccs3)[nH]c3ncccc23)CC1 [CBK283318] | 105.171 |
| COc1ccc(Cl)cc1C(=O)Nc1cnn(CCCC(=O)O)c1 [CBK269855] | 75.3838 |
